According to PMC12136788:
The other results are listed elsewhere or left out.

T1: UNK ZnF1-3 (human, UniProt Q9C0B0 31-174)
T1 sequence: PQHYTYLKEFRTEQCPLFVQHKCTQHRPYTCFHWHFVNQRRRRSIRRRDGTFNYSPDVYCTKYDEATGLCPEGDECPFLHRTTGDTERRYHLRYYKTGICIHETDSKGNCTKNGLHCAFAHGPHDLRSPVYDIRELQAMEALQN

B1: chr13:22070289:22070290:-_ENSG00000165487_ENST00000382374|hu_mus|motif|central (ssRNA)
RNA: GGGAGUUCUACAGUCCGACGAUCAGCAAAGUCUUCCAAAUGCGUUGUAAAAUGGCAAAAGGACUUGAACUCAUCCAAACGGAUGCUCUCUCCUACUGACAACUUUUCUCUCACGUUUCUCCAGUAAAUAUCUUUAUUUUCAGUCAACAGAGGAUUGAGCAUCA
B2: chr4:148551591:148551592:-_ENSMUSG00000063077_ENSMUST00000060537|mus_hu|mus_mus_mus_hu_False|18_28 (ssRNA)
RNA: GGGAGUUCUACAGUCCGACGAUCACCUGACAAAAUUAAAUAUCCCUGUAAAUUAGACAAUAAGCAGCAGGCAACAAAGUCUUUGCUUUGGAAUAUGUGCCAGGAAAAAUCAUGUUUUAGACCCCAAUCAAGAGACAGUUCACACAACAGAGGAUUGAGCAUCA
B3: 98613764_98613884_684_3pUTR_ENSMUSG00000031310_ENSMUST00000121520|mouse|control|control (ssRNA)
RNA: GGGAGUUCUACAGUCCGACGAUCAGCCCCUUCUCCUUGUAGCUAAGGGGGGUAUCUCCUCUUCAAUAUGAGGAGACUCCAGGAUUAUUGGAGAAUCUGGAGCCAAAGGUUCUAGUAGCCCCUCAGGUGAAGGGGGACUAGCCCCAACAGAGGAUUGAGCAUCA
B4: chr3:197553776:197553777:+_ENSG00000186001_ENST00000438796|hu_hu|motif|central (ssRNA)
RNA: GGGAGUUCUACAGUCCGACGAUCGCAUGAGAAGUCUAACCGUAUCAAAGGCAACUCCGCCAGCUCUUCAGGCAAAUGUACGGGGUGAUUUCUUCUUACAUUAAGGUCUCUCAAGGCCUCCAGGUUACCAAUUUGGGAAGGUAUCAACAGAGGAUUGAGCAUCA
B5: 9437880_9438000_2913_3pUTR_ENSMUSG00000040209_ENSMUST00000041124|mouse|control|control (ssRNA)
RNA: GGGAGUUCUACAGUCCGACGAUCCCAGUCUGGAGUUUUCUACCUGGGCGGGGUUGGAGAGCAGAAUGCUAACCCAGAGUCCUGGCUAUGGUCUUGGCAGAACCAAGCAGGACACACUAUCCAGGCUGCAGUGUGUGUGAUAUCCAACAGAGGAUUGAGCAUCA
B6: chr12:76570751:76570752:-_ENSMUSG00000021051_ENSMUST00000021447|perfect_dup|motif|central (ssRNA)
RNA: GGGAGUUCUACAGUCCGACGAUCUGUUUCAUAAACAAACCUUAGAAAAAUAUUGUUAAUUUGUUUUCGGAUAAAUGCUCGGAGCCCGAGAAACUUGCCAUAAAUCCUGUGCAAGACUGUUUUUAAAUAGUCCCGUUCUCGAGGCAACAGAGGAUUGAGCAUCA
B7: 28350707_28356662_537_CDS_ENSMUSG00000049643_ENSMUST00000067386|mouse|control|control (ssRNA)
RNA: GGGAGUUCUACAGUCCGACGAUCGGUGCUGUUGUCUGACCGCCGUGUGGGGGUAUGGGGUGGAGAGUCAUGGUUCAGGCUGUUGGCAAUCAUUCGAGAAGCGGCACUAGAAGCGCCUCGGCGAAGCUCACCCUGGAGCGGGCUCAACAGAGGAUUGAGCAUCA
B8: chr17:85413340:85413341:+_ENSMUSG00000061130_ENSMUST00000080217|mus_hu|motif|central (ssRNA)
RNA: GGGAGUUCUACAGUCCGACGAUCUCAAUUUUACACUAUCUCAUAAAGGUGUAUGCAAAGGCCUUUUUAAAAAACAAGGCGGUCUGAAUAUAAUAAAACUAGUUUUCCAAGAUUCAAAUAACAAAACAGUUAUAUAAAUGCAUACAACAGAGGAUUGAGCAUCA
B9: chr19:36145531:36145532:+_ENSG00000126267_ENST00000246554|hu_hu|FALSE|FALSE (ssRNA)
RNA: GGGAGUUCUACAGUCCGACGAUCAUCCCAGUCUGUGACCCAGGAUGUGGGGCAGAGGGACUGGUACACACGCUGGUACCAUUCGCACACAGAGAUAUCGCCUCCUUUAGCGGUCAUUGCCUUCUGACAGCGGUGGAAGUCCAGCAACAGAGGAUUGAGCAUCA
B10: 27589336_27589456_4307_3pUTR_ENSG00000108256_ENST00000225388|human|control|control (ssRNA)
RNA: GGGAGUUCUACAGUCCGACGAUCAACCUGUAAAACAAACUGGAGCCUUUUUUCCCUUUAAUCAACCUUAUAUGUCUUUUUUUUUAACUUUUUGAAAAUUUUUAUUUAAAAAAACACAAAAACACAGACUUUUUUCACUUCAGUCAACAGAGGAUUGAGCAUCA
B11: chr3:63791606:63791607:+_ENSMUSG00000027823_ENSMUST00000029405|mus_mus|FALSE|FALSE (ssRNA)
RNA: GGGAGUUCUACAGUCCGACGAUCAAGUAAAACAAUUUCUUCCUUCUGCAGGCCCCUGAAUAAUGAACACGUAUUAUCCAUACUAAUGUUGAAAACUCCAUCCUCUCUAACACUUUUUUUAUGCACAGUGCCUCCAAAGACUUUCAACAGAGGAUUGAGCAUCA
B12: chr14:62207481:62207482:+_ENSG00000100644_ENST00000337138|hu_mus|FALSE|FALSE (ssRNA)
RNA: GGGAGUUCUACAGUCCGACGAUCGGAACGUAACUGGAAAUCAUCAUCCAUUGGGAUAUAGGGAGCCAGCAUCUCCAAAUCUAAAUCAGUGUCCUGAGUUGAAAAUGGAUUCUUUGCCUCUGUGUCUUCAGCAAACAGUUUUUCCAACAGAGGAUUGAGCAUCA
B13: 31094576_31094696_1819_3pUTR_ENSMUSG00000029168_ENSMUST00000114729|mouse|control|control (ssRNA)
RNA: GGGAGUUCUACAGUCCGACGAUCUCUCUCUGUACCAGCUUCUUAUAGACAAUGUCUGGGAAAGACCGCAGGGGACAGAACUUGCCAGUGCCCUCUGCACACAUGAAGACGCCGUUCUCAUACACGACUCGUCCCCGGCUGAUGCAACAGAGGAUUGAGCAUCA
B14: 32956884_32975425_4088_CDS_ENSG00000060749_ENST00000399302|human|control|control (ssRNA)
RNA: GGGAGUUCUACAGUCCGACGAUCAGUAGUUGCCACCUGUAGGGCUUCUGUUUUCUUCUUUUUAUCAGAAGUAGCAUCCAAAGUAGUUAAGGGAGUAGAGACGCUUUUAUAAGCAUCUUGACUAUAUCCAGGAUCAUCUUCAUCCAACAGAGGAUUGAGCAUCA
B15: chr2:175006660:175006661:-_ENSG00000138430_ENST00000344357|hu_hu|FALSE|FALSE (ssRNA)
RNA: GGGAGUUCUACAGUCCGACGAUCUAUAAUGGGCCCAAUCAUUUCCUCAUCUUUAAGCUGAAGCUCUUCAUGUAUUAUUUCUAUAUCUCGAAUAGGAUCUACACUUCCUUCAACGUGCGUGAUAUCAUCAUCUUCAAAAGCACGCAACAGAGGAUUGAGCAUCA
B16: chr2:115689366:115689367:-_ENSMUSG00000027210_ENSMUST00000074285|mus_mus|motif|central (ssRNA)
RNA: GGGAGUUCUACAGUCCGACGAUCUCUUUGAAGAACAGUCCCCCAAAAUCAUAAUAAGAAUUGGCUUAUGAAGCACAAACGGUAAAGAUCUGUUUGAAACUAAAGGACACAUGGACGGGGGGAACAAAGGCCGGGCAUGAAAACCAACAGAGGAUUGAGCAUCA
B17: chr1:225611761:225611762:-_ENSG00000143815_ENST00000272163|hu_mus|hu_hu_hu_mus_True|28_48 (ssRNA)
RNA: GGGAGUUCUACAGUCCGACGAUCCCAGGCCAUCGGCCUCUGACCACUUCACCCUCAACAAACUUCCUACUUGGCAUUUUCUAAAAUUAACCUGCGCGCGCUCCGGCCGGUGACACGGCCACUCCAGGACAGUCACCAGCAGCCCAACAGAGGAUUGAGCAUCA
B18: 10090341_10099430_716_CDS_ENSG00000071127_ENST00000499869|human|control|control (ssRNA)
RNA: GGGAGUUCUACAGUCCGACGAUCACAGUUGACAAAGCGGCUGUGGUCGCCAAUUGUGAACUUGAACUUGAAUGGGGGUCCCUCAAAGAAUGCCGCGCAGUUAUCAUCGCUUCCCGUGGCCAGCCGGUAUGGCCGGCUCUGCUUCAACAGAGGAUUGAGCAUCA
B19: chr18:46858332:46858333:-_ENSG00000141627_ENST00000269445|hu_mus|FALSE|FALSE (ssRNA)
RNA: GGGAGUUCUACAGUCCGACGAUCCGACUGCUGAGGGAAGACAUGGGUUCCGGGCGGAGGUGGCUUUUCUUGUCUGAUAAAGUUAUACAAUAAGGUUUUCACAAGUUUACUGGUGUAGGGAAGACAUGGGCCUUGCAUCAGGUACAACAGAGGAUUGAGCAUCA
B20: chr4:175231952:175231953:+_ENSG00000164118_ENST00000503780|hu_hu|FALSE|FALSE (ssRNA)
RNA: GGGAGUUCUACAGUCCGACGAUCAUUCAGAAGGUCCAUGUCACUACAAGAAGCGUAGUCUUCACUAACUUCAUUAAACUCUAUAAAUUCAUCAUUCUUUUUAGACAAAAGCAUUUCUGUUUCAAGAAGAGUGACACGACUAAGCAACAGAGGAUUGAGCAUCA
B21: chr15:68825492:68825493:+_ENSMUSG00000022332_ENSMUST00000022954|mus_mus|motif|central (ssRNA)
RNA: GGGAGUUCUACAGUCCGACGAUCUAUCACCACGUCAAUGUACUUCUCUUCCUCCUUGCCUUCUCCCUUUUGAAACUUUUCGGUUUCUCGGUUCACCAAGCGCAGGGCGUGCGUGAAGGAGGGGUCCAGAGAGUCCUUCUCCGCCAACAGAGGAUUGAGCAUCA
B22: chr7:141445308:141445309:+_ENSG00000106028_ENST00000265304|hu_hu|hu_hu_hu_mus_False|28_28 (ssRNA)
RNA: GGGAGUUCUACAGUCCGACGAUCUAUGAUUGUUGUUGCUUGCCGCCUCACAUUGUUUUUAUCCAUGUACUCGCCAUAGUCCACUUUCCCUUCCACAAAUAUACGAGACCCCUUUUUCACAUACUGAUAUGCCACAUCUCUGAGCAACAGAGGAUUGAGCAUCA

These binders were tested against T1, UNK ZnF1-3 (assay: nsRBNS (natural sequence RNA bind-n-seq); RBNS binding buffer (assumed for nsRBNS): 25 mM Tris pH 7.5, 150 mM KCl, 3 mM MgCl2, 0.01% Triton X-100, 500 ug/ml BSA, 20 U/ml SUPERase-In, 4 C; UNK is unkempt and MSI1 is Musashi-1; names of the RNAs are library labels; protein concentration not given here; high values mean tight binding).

| Binder | binding signal [enrichment R] |
| --- | --- |
| B1 | 1.37 |
| B2 | 1.46 |
| B3 | 0.771 |
| B4 | 0.749 |
| B5 | 0.986 |
| B6 | 1.29 |
| B7 | 1.19 |
| B8 | 0.894 |
| B9 | 0.897 |
| B10 | 1.24 |
| B11 | 1.3 |
| B12 | 1.4 |
| B13 | 0.843 |
| B14 | 0.863 |
| B15 | 1.18 |
| B16 | 2.33 |
| B17 | 1.15 |
| B18 | 0.514 |
| B19 | 1.35 |
| B20 | 0.704 |
| B21 | 0.792 |
| B22 | 0.687 |
